# The whole screen tested about 150,000 compounds, of which about 540 (0.36%) showed an effect of 50% or more. The list shows a part of the results.
# System: Plasmodium falciparum
# Test: Primary screen in NF54 nanoGlo assay, in single point, at 2uM, 72h; a lower Z score goes with more inhibition
# Format: functional, Erythrocyte
# Conditions: timepoint 72 hour
SMILES,% Inhibition,Z score
COCc1ccc(NC(=O)N2Cc3cccc(OC)c3C2)cc1C(F)(F)F,-8%,0.83
COCCn1cncc1CNC(=O)N(C)[C@@H](C)c1nc(C)sc1C,-1%,0.18
Cc1cc(C)cc(N(Cc2cc(C)no2)Cc2cc(C)no2)c1,-11%,1.49
NCc1ccc(C(=O)N(Cc2ccccc2)C2CCCCC2)o1,-13%,1.69
CN(CC(O)c1cccnc1)C(=O)[C@@H]1C[C@]1(C)c1ccccc1 (stereo partly specified),-6%,1.21
CC1(O)CC(C(=O)NCC[C@H]2CCCCO2)C1 (stereo partly specified),-2%,0.29
CCc1ccc(-c2cc3n(n2)C[C@@](C)(C(=O)NC2CCCCCC2)N(c2ccc(F)cc2)C3=O)cc1,0%,0.02
N#Cc1nc(C2CC2)oc1N1CCN(C(=O)c2ccc(O)nc2)CC1,-2%,0.35
CNC(=O)c1cc(N2CCN(c3ncc(C(F)(F)F)cc3Cl)CC2)ccc1NC(=O)c1ccccc1Cl,35%,-1.22
Cc1ccc(C(=O)N/C(=N/c2ccc3c(c2)OCCO3)NCc2c(C)nn(C)c2C)cc1C,-4%,0.72
O=C1NCCC[C@@H]1NC(=O)[C@H]1CN(C(=O)c2cncnc2)CCN1C(=O)C1CCCCC1,-1%,0.08
CCCNC(=O)N(Cc1cc(-c2ccccc2OC)on1)C(C)C,-4%,0.74
CC(C)c1csc(CNC(=O)c2cnc3cn[nH]c3c2)n1,-16%,2.59
CCS(=O)(=O)N1CCC(c2cc(-c3ccc(F)cc3)n[nH]2)CC1,-10%,1.23
O=C(Cn1cc2c(n1)CCOC2)NCc1ccccc1F,-5%,0.67
Cc1cc2c(N[C@H]3C[C@@](C)(O)C3)nccn2n1,-3%,0.54
CN(C)CCCC(C)(C)NC(=O)CC=CCc1ccccc1,-17%,1.97
COCC(=O)N(CC(=O)N(Cc1ccccc1)Cc1ccc(C)o1)C(C)C,-14%,1.57
CNC(=O)c1cc(O[C@H]2CCCN(C(=O)C3CC(=O)C3)C2)ccn1,-1%,0.16
CC(NC(=O)C1(O)CCCC1)C1CCN(Cc2ccccc2)C1 (stereo unspecified),-10%,2
Cn1nccc1C[C@@H]1CCCN1C(=O)NCC(C)(C)c1cccnc1,0%,0.04
Nc1cncc(-c2ccc(F)c3cccnc23)c1,9%,-1.61
CC[C@@](NC(=O)c1cscc1C)(C(N)=O)C(C)C,-1%,0.17
Cn1cc(S(=O)(=O)N2CCCCCC2)cc1C(=O)NC1CCCCC1,4%,-0.59
CN1CCN(CC[C@H]2CCCCN2C(=O)Nc2ccc3[nH]ccc3c2)CC1,-5%,0.7
CC(C)[C@H]1C(=O)NCCN1c1ncc(Br)cn1,-7%,0.77
O=C1NC[C@H]2O[C@H](CCOc3cc(-c4ccccc4)ccc3C(=O)N3CCN(C4CCCCC4)C[C@@H]13)CC[C@@H]2O,3%,-0.37

SMILES,% Inhibition,Z score
CCC(OC1CCCC(C)C1)C(=O)N(C)Cc1cnccn1 (stereo unspecified),-6%,0.79
Cc1cc(N[C@H](c2nc(-c3nnc[nH]3)no2)C(C)(C)C)n2nc(C(F)(F)F)nc2n1,-7%,0.71
Cn1ccnc1COC(=O)c1cscn1,-1%,0.12
COc1ccc(-c2nc(C(=O)N3c4ccccc4C[C@H]3C(N)=O)cs2)cc1,-4%,0.47
Cc1cnccc1CCNCc1ccccc1OCCCCO,-1%,0.11
CCC(C)NS(=O)(=O)c1cccc(N2C(=O)NC3(CCOC3)C2=O)c1 (stereo unspecified),-3%,0.34
COCCCCn1ccnc1-c1ccncc1,-3%,0.49
CCn1c(=O)c(CCC(=O)NCCN2CCCCC2)nc2c(C)nn(-c3ccccc3)c21,-14%,2.1
CN1CCC2(CC1)CN(C(=O)c1cc(-c3ccccc3)on1)CCCN2C,-1%,0.16
O=S1(=O)[C@H](c2ccccc2)CCN1Cc1cc(F)ccc1OC(F)F,-13%,1.5
CCNc1ccc(Cl)cc1C(=O)Oc1ccc(NS(C)(=O)=O)cc1,-9%,1.22
COc1ccc(-c2ccc(=O)n(CCNS(=O)(=O)c3ccc(Oc4ccccc4)cc3)n2)cc1,-5%,0.94
COc1cc(C(=O)O)cc(OC)c1-c1ccc([C@H](C)N2CCCC2)cc1,-8%,1.56
COC[C@@H]1CN(c2ncccn2)C[C@H]1C(=O)Nc1ccc(OC)nc1,-11%,1.62
CC(C)N(c1snnc1N)C(C)C,-41%,4.86
O=C(c1cnn(C2CC2)c1)N1CC[C@H](c2cccnc2)C1,-3%,0.59
CC(C)c1nc(C2CCN(C(=O)c3nc4n(n3)CCCN4)CC2)no1,-9%,1.29
Nc1nnc(-c2cc(-c3ccc4c(c3)OCO4)on2)o1,-10%,1.43
CC(C)N(C)C(=O)[C@H](C)Nc1cnn(CC(F)F)c1,-5%,0.57
CCc1cccc2c(CCNC(=O)CCNC(=O)C3CCC3)c[nH]c12,-5%,0.71
COc1ccc(N2CCN(C(=O)CC[C@@H](C)[C@H]3CC[C@H]4[C@@H]5[C@H](O)C[C@@H]6C[C@H](O)CC[C@]6(C)[C@H]5C[C@H](O)[C@]34C)CC2)cc1,-12%,1.52
O=C(Nc1cccc(-c2csc(Nc3ccccc3Cl)n2)c1)C1CCOCC1,-1%,0.18
O=C(NCCO)C(=O)Nc1ccc(Br)cc1,-11%,1.37
C[C@]1(C(=O)NCC2(N3CCOCC3)CCCCC2)CC1(Cl)Cl,1%,-0.11
FC(F)(F)c1ccc(C[C@H]2CCNC2)cc1,-2%,0.36
C[C@@H](CO)N1CCN(c2cc(NCC3CC3)ncn2)CC1,-8%,1.36

# — ChEMBL document CHEMBL4888484, “Replenishing the malaria drug discovery pipeline: Screening and hit evaluation of the MMV Hit Generation Library 1 (HGL1) against asexual blood stage Plasmodium falciparum ,using a nano luciferase reporter read-out” (2022)
